Assay results published in ChEMBL document CHEMBL4888484, “Replenishing the malaria drug discovery pipeline: Screening and hit evaluation of the MMV Hit Generation Library 1 (HGL1) against asexual blood stage Plasmodium falciparum ,using a nano luciferase reporter read-out” (2022).
Out of some 150,000 compounds screened, about 540 (0.36%) showed an effect of 50% or more. This is one part of the list.

Tested on: Plasmodium falciparum
Assay: Primary screen in NF54 nanoGlo assay, in single point, at 2uM, 72h; a lower Z score goes with more inhibition
Type: functional, Erythrocyte
Conditions: timepoint 72 hour

Structure (SMILES) | % Inhibition [%] | Z score
NS(=O)(=O)c1ccc(CCNC(=O)c2ccc3c(c2)CCCC3)cc1 | -9 | 1.05
CNS(=O)(=O)CC1CCCN1C(C)C(=O)N1CCC(C)CC1 (centres undefined) | 11 | -1.18
CCC(CC)N(C)C(=O)NCCc1ccccc1 | -3 | 0.48
COCc1cccc(C(=O)N2CC[C@]3(OC)CC[C@H](O)C[C@H]23)n1 | -3 | 0.53
O=C1CC[C@@]2(CCCN(C(=O)c3ccncc3)C2)CN1CCc1c[nH]cn1 | -8 | 1
CCC1Oc2cc(S(=O)(=O)N3CCCC(C(=O)N4CCCCC4C)C3)c(C)cc2NC1=O (centres undefined) | -13 | 1.54
CCc1noc(NC(=O)[C@H]2CCCO2)n1 | 13 | -1.54
Cc1n[nH]c(CN2CCC(C(=O)NCc3ccccc3)CC2)c1Cl | 4 | -0.8
COc1ccc(NC(=O)C2(N(C(=O)CC3C(c4c(C)[nH]c5ccccc45)C3(C)C)C3CC3)CCN(C)CC2)cc1 (centres undefined) | -9 | 1.01
Cc1noc(-c2ccc(NC(=O)c3ccc(C)c(N4CCOCC4)c3)cn2)n1 | 3 | -0.4
Cc1nn(-c2ccccc2)c(NC(=O)C2CCCCC2)c(-c2ccc(Cl)cc2)c1=O | -3 | 0.35
C#C[C@H](C)OC(=O)c1cccc(Nc2cnccn2)c1 | 36 | -0.71
C[C@H]1CN(Cc2ccccc2)CCN1Cc1ccn[nH]1 | -2 | 0.45
Nc1c2c(-c3cccs3)nc(N3CCN(Cc4ccc(Cl)cc4)CC3)nc2nn1-c1ccccc1 | 2 | -0.47
CCCc1nnc(N[C@H]2CCN(C)C2=O)s1 | 0 | -0.05
O=C1C(=O)N(CN2CCC(CN3C(=O)c4ccccc4C3=O)CC2)c2cc3c(cc21)OCCO3 | -9 | 1.65
O=C1O[C@H](C(=O)Nc2ccc3ccccc3c2)Cc2ccccc21 | -19 | 2.79
CN(CC(O)C(F)(F)F)C(=O)NC1CC2CCCc3cccc1c32 (centres undefined) | -10 | 0.86
COC(=O)c1ccc([C@H]2CC(=O)Nc3ncn(-c4cccc(OC)c4)c32)cc1 | 1 | -0.08
Cc1noc(C)c1Cc1ccc(C(=O)N2C[C@@H](Oc3cccnc3)C[C@H]2C(N)=O)o1 | 10 | -1.26
COc1cccc(C(=O)N2CCC(Nc3cccc(C)n3)CC2)c1F | -15 | 1.53
CC(C)C(=O)N1CCCC[C@H]1C(=O)Nc1sc2c(c1C#N)CCCC2 | -8 | 1.23
